# Where “and” joins values, the source holds several entries; their conditions need not be identical. Equal entries are not always repeated. This list was built around the results that the source calls inconclusive (neither active nor inactive); the mix of calls is not that of the screen. Potencies beside an inconclusive call are fits to weak or partial responses and may not hold up. Calls of active or inactive are those of the source. Unless noted, calls follow the shape of the dose curve; as a rule, active = well fitted curve in the direction sought with a large enough effect in the repeat runs; inconclusive = weak or mixed curves; inactive = no such curve, though single readings can be large; an effect the other way counts as inactive or inconclusive.
# Assays:
# [1] = biological target: Progesterone receptor (Homo sapiens) (UniProt P06401); assay: qHTS assay to identify small molecule antagonists of the progesterone receptor (PR) signaling pathway (AID 1346795; active = well fitted inhibition curve with a large enough effect in the signal ratio in the repeat runs, not every such curve was filed as active; inconclusive = weak or mixed curves; the % refers to the signal ratio; as to activity change, negative = inhibition: % is scaled to controls: 0 for no effect and ±100 for the full control effect); details: PR-UAS-bla HEK293T, beta-lactamase FRET ratio, 16 h; activity change, negative = inhibition: at 92.4 µM (top of the series) unless noted
# In short: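 Antagonist mode: compounds tested against 1 nM (final) promegestone stimulation in HEK293T cells expressing PR-UAS-bla reporter, 16 hr at 37C, 5% CO2; beta-lactamase activity detected via B/G FRET substrate after 2 hr at room temperature.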
# [2] = qHTS assay to identify small molecule antagonists of the progesterone receptor (PR) signaling pathway - cell viability counter screen (AID 1346798); also: nearly all actives have a fitted effect of over 50% in size; as to activity change, negative = cytotoxicity: % is scaled to controls: 0 for no effect and ±100 for the full control effect
# In short: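 Counter screen for cytotoxicity: viability of PR-UAS-bla HEK293T cells was measured with CellTiter-Glo luminescence following 16 hr compound exposure in the presence of R5020.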
# [3] = biological target: Nuclear receptor subfamily 1 group I member 2 (Rattus norvegicus) (UniProt Q9R1A7); assay: Rat pregnane X receptor (rPXR) activation by small molecules, qHTS assay (AID 1346983); details: rPXR luciferase reporter cells, One-Glo luminescence, 24 h; max activation: stronger effect = higher value; also: nearly all actives have a fitted effect of over 20% in size
# In short: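 Cell-based rPXR activation assay: rPXR cells, 2,000 per well, rested 5hr at 37 C, then exposed to compounds in DMSO for 24 hr at 37 C. Luciferase activity read by One-Glo luminescence after 30 min at room temperature.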
# [4] = biological target: Cytochrome P450 2D6 (Homo sapiens) (UniProt P10635); assay: Cytochrome P450 Family 2 Subfamily D Member 6 (CYP2D6) small molecule antagonists: luciferase reporter qHTS assay (AID 1671196); also: nearly all actives have a fitted effect of over 50% in size; as to activity change, negative = inhibition: % is scaled to controls: 0 for no effect and ±100 for the full control effect
# In short: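 P450-Glo format: CYP2D6 converts a proluciferin substrate to luciferin in an NADPH-driven reaction lasting 1 h at room temperature. Light output, proportional to CYP2D6 activity, reflects interference by test chemicals.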
# [5] = biological target: Cytochrome P450 2C9 (Homo sapiens) (UniProt P11712); assay: Cytochrome P450 Family 2 Subfamily C Member 9 (CYP2C9) small molecule antagonists: luciferase reporter qHTS assay (AID 1671198); also: nearly all actives have a fitted effect of over 50% in size
# In short: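 P450-Glo proluciferin substrate with CYP2C9 enzyme; 10 min RT preincubation, then NADPH regeneration 1 h at 37C; luciferin detection reagent 20 min RT, luminescence in relative luminescence units.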
# [6] = Caspase-3/7 induction in CHO-K1 cells by small molecules, qHTS cell viability counter screen (AID 1346979); details: CellTiter-Fluor fluorescence, 17 h; activity change, negative = cytotoxicity: at 92.4 µM (top of the series); also: nearly all actives have a fitted effect of over 35% in size; as to activity change, negative = cytotoxicity: % is scaled to controls: 0 for no effect and ±100 for the full control effect
# In short: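 Cytotoxicity counter screen run in parallel with the caspase-3/7 assay: CHO-K1 cells, 16hr compound treatment at 37C, then CellTiter-Fluor for 1hr before fluorescence reading.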
# [7] = Human pregnane X receptor (PXR) small molecule agonists, qHTS cell viability counter screen (AID 1346977); also: nearly all actives have a fitted effect of over 50% in size
# In short: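 Cytotoxicity counter screen run in the same wells as the PXR luciferase assay, using PXR-Luc HepG2 cells in charcoal-stripped serum medium. Viability: CellTiter-Fluor fluorescence after 24hr compound treatment.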
# [8] = Caspase-3/7 induction in HepG2 cells by small molecules, qHTS cell viability counter screen (AID 1346981); also: nearly all actives have a fitted effect of over 30% in size
# In short: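 Steps: seed 2,000 HepG2 cells per well; incubate 5 hr at 37 C; pin-add compounds in DMSO; incubate 16 hr; add CellTiter-Fluor; after 1 hr at 37 C and 5% CO2, read fluorescence.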
# [9] = biological target: Cytochrome P450 2C19 (Homo sapiens) (UniProt P33261); assay: Cytochrome P450 Family 2 Subfamily C Member 19 (CYP2C19) small molecule antagonists: luciferase reporter qHTS assay (AID 1671197); also: nearly all actives have a fitted effect of over 65% in size
# In short: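 P450-Glo CYP2C19 screening system; proluciferin substrate; DMSO compound stocks; 10 min RT preincubation; NADPH regeneration, 1 h at 37C; luciferin detection reagent, 20 min RT; luminescence as RLU.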
# [10] = biological target: Nuclear receptor subfamily 1 group I member 2 (Homo sapiens) (UniProt O75469); assay: Human pregnane X receptor (PXR) small molecule agonists, qHTS assay (AID 1346982); also: nearly all actives have a fitted effect of over 35% in size
# In short: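 Agonist mode qHTS: PXR-Luc HepG2 cells plated 5 hr before DMSO-dissolved compounds were pinned in, cultured 24 hr at 37 C, 5% CO2; ONE-Glo luminescence readout.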
# [11] = Caspase-3/7 induction in CHO-K1 cells by small molecules, qHTS assay (AID 1346980); also: nearly all actives have a fitted effect of over 15% in size
# In short: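 Wild-type CHO-K1 cells exposed to compounds for 17hr at 37 C, 5% CO2. Caspase-3/7 activity then measured by Caspase-Glo 3/7 luminescence after 30min at room temperature.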
# Potency is read from the fitted curve at half-maximal effect; tags tell the direction and shape of the fitted curve.
# Sequence of UniProt P10635 (P10635 whole entry, looked up): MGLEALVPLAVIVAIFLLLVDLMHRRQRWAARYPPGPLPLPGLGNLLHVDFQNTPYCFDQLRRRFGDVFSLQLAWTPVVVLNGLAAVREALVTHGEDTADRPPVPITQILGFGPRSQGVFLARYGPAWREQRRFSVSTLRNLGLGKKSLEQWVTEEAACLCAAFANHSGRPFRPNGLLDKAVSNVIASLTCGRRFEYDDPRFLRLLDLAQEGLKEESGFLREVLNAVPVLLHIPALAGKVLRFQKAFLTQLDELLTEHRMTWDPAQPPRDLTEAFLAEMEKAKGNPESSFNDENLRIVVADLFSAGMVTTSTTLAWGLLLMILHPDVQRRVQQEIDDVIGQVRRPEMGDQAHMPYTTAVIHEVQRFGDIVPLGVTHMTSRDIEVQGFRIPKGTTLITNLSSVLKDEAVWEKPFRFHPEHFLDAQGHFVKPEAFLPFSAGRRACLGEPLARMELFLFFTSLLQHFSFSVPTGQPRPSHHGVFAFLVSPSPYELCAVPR
# Sequence of UniProt P11712 (P11712 whole entry, looked up): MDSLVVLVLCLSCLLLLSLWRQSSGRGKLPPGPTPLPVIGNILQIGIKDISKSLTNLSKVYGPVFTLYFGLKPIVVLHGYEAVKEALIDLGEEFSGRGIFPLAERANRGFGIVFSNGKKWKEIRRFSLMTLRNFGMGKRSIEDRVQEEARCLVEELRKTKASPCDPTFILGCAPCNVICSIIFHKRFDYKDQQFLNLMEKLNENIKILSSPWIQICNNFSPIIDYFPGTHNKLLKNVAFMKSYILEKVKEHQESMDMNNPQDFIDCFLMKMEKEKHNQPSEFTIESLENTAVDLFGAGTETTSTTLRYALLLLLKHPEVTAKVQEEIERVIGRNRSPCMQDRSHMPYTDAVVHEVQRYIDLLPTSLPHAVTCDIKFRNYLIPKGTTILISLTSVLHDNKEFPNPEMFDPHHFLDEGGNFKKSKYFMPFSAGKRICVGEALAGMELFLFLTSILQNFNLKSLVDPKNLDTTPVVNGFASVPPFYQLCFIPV
# Sequence of UniProt P33261 (P33261 whole entry, looked up): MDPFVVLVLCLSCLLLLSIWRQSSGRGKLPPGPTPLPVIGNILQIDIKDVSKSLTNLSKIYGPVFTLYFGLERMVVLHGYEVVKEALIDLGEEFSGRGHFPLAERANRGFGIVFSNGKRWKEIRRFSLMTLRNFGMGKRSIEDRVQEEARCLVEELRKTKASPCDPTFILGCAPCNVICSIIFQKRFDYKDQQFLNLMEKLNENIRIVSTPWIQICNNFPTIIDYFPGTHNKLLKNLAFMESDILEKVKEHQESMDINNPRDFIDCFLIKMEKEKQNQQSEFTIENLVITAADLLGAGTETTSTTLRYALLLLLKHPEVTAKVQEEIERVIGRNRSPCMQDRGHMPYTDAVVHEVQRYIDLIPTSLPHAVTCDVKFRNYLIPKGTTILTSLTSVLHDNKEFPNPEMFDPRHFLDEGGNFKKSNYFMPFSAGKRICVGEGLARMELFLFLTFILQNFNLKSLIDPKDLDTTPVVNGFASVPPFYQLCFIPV
# Sequence of UniProt P06401 (P06401 whole entry, looked up): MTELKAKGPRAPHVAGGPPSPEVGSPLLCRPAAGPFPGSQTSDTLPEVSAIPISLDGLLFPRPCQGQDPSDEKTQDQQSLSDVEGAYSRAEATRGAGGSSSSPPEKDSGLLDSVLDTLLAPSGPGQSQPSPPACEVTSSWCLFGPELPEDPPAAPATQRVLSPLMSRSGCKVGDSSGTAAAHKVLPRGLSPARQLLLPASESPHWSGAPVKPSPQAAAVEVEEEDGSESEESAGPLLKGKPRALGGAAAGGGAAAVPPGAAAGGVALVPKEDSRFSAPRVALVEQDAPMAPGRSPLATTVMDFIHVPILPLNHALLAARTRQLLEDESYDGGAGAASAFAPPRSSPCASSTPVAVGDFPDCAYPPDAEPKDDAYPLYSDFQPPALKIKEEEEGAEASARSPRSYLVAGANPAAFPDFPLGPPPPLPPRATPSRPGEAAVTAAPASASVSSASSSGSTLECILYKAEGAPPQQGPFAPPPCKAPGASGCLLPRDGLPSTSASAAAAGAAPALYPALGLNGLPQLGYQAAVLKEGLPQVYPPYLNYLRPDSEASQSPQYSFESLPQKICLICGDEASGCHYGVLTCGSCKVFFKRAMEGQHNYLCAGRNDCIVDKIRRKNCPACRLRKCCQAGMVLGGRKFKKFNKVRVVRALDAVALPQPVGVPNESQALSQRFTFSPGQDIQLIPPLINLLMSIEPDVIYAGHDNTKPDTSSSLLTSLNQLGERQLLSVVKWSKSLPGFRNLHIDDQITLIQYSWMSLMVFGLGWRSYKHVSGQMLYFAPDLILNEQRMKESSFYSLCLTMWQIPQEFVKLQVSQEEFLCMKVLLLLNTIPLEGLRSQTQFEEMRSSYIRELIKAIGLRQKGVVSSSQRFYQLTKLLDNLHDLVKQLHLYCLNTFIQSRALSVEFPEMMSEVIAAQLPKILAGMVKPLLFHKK
# Sequence of UniProt O75469 (O75469 whole entry, looked up): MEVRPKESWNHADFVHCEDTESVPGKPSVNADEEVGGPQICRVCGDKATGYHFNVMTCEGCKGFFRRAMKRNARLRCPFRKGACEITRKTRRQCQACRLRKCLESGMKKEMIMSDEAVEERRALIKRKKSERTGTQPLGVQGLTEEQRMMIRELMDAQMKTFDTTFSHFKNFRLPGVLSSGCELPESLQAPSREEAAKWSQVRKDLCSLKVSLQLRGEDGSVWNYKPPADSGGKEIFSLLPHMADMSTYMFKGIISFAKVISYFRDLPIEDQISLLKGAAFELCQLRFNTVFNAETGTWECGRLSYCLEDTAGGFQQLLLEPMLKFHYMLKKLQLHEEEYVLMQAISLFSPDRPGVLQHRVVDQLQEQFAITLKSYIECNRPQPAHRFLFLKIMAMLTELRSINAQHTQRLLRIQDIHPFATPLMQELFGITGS
# Sequence of UniProt Q9R1A7 (Q9R1A7 whole entry, looked up): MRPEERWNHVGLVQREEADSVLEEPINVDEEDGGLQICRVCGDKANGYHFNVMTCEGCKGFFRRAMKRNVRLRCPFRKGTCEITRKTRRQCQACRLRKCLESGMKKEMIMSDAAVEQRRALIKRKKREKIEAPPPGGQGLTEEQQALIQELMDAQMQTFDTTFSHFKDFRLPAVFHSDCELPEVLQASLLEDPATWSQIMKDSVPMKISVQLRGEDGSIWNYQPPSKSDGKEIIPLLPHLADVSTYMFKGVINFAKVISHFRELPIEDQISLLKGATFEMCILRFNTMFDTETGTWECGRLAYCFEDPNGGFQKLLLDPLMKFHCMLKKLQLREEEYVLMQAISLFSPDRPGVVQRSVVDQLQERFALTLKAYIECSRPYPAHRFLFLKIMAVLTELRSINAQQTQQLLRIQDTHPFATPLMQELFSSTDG
smiles,measurement,setting,value
CCC(=O)c1c(O)cc(O)cc1O,"activity change, negative = inhibition",[1],inconclusive: -25.2% [at 42.5 µM]
same,Potency,[2],inactive
same,Potency,[3],"inconclusive: 14.1 µM [activator, single point]"
same,Potency,[4],active: 27.5 µM
COc1ccc(/C=C/S(=O)(=O)NC(=O)c2ccc(C)cc2Cl)cc1,"activity change, negative = inhibition",[1],inconclusive: -10.9%
same,Potency,[2],"inconclusive: 7.7 µM [rising, partial curve, poor fit]"
same,Potency,[5],active: 17.8 µM
CC(=O)OCC(=O)[C@@]1(O)CC[C@H]2[C@@H]3CCC4=CC(=O)CC[C@]4(C)[C@H]3C(=O)C[C@@]21C,Potency,[1],"inconclusive: 37.6 µM [rising, single point]"
same,Potency,[2],inactive
same,Potency,[4],active: 2.45 µM
same,Potency,[5],"inconclusive: 2.45 µM [inhibitor, full curve, poor fit]"
CCOc1ccc(NC(C)=O)cc1N,"activity change, negative = inhibition",[1],inconclusive: -41.7%
same,Potency,[2],"inconclusive: 69.6 µM [cytotoxic, single point]"
same,Potency,[6],inactive
same,Potency,[4],"inconclusive: 28.6 µM [inhibitor, partial curve]"
same,Potency,[5],"inconclusive: 32.1 µM [inhibitor, partial curve]"
Cc1nccn1-c1ccc(Sc2cccc(C3(C(N)=O)CCOCC3)c2)cc1,"activity change, negative = inhibition",[1],inconclusive: -63.7%
same,Potency,[2],"inconclusive: 4.33 µM [rising, full curve]"
same,Potency,[7],active: 8.63 µM
same,Potency,[6],active: 7.7 µM
same,Potency,[8],"inconclusive: 27.3 µM [cytotoxic, full curve]"
CC(C)(N=C=O)c1cccc(C(C)(C)N=C=O)c1,Potency,[1],"inconclusive: 60.6 µM [rising, partial curve, poor fit]"
same,Potency,[2],"inconclusive: 54 µM [cytotoxic, partial curve, poor fit]"
same,Potency,[5],"inconclusive: 35.3 µM [inhibitor, full curve]"
CC1CCC(C(C)(C)S)C(=O)C1 (centres undefined),Potency,[1],inactive
same,Potency,[2],inactive
same,Potency,[8],"inconclusive: 24.3 µM [cytotoxic, partial curve, poor fit]"
same,Potency,[4],"inconclusive: 71 µM [inhibitor, partial curve, poor fit]"
CCN(C(=O)c1cc(C)cc(OC[C@H](C)Nc2ccncc2)c1)C(C)C,Potency,[1],inconclusive: 13.5 µM
same,Potency,[2],inactive
same,Potency,[7],"inconclusive: 38.1 µM [cytotoxic, partial curve]"
same,Potency,[4],active: 22.2 µM
same,Potency,[9],"inconclusive: 55.8 µM [inhibitor, single point]"
same,Potency,[5],active: 7.02 µM
CC1=Nc2ccccc2C1(C)C,Potency,[1],active: 30.7 µM
same,Potency,[2],"inconclusive: 17.2 µM [rising, full curve]"
same,Potency,[10],inconclusive: 61.2 µM [activator]
CNCc1ccccc1,Potency,[1],inactive
same,Potency,[2],"inconclusive: 3.35 µM [rising, partial curve, poor fit]"
same,Potency,[9],"inconclusive: 17.4 µM [inhibitor, full curve, poor fit]"
same,Potency,[5],"inconclusive: 27.5 µM [inhibitor, partial curve, poor fit]"
CN(C)/N=N/c1nc[nH]c1C(N)=O,"activity change, negative = inhibition",[1],inconclusive: 10.6% [at 42.5 µM]
same,Potency,[2],"inconclusive: 5.31 µM [rising, full curve, poor fit]"
same,Potency,[6],"inconclusive: 33.5 µM [cytotoxic, partial curve, poor fit]"
same,Potency,[4],"inactive and inconclusive: 19.5 µM [inhibitor, partial curve, poor fit]"
C1COCCN1,Potency,[1],"inconclusive: 65.1 µM [rising, single point]"
same,Potency,[2],"inconclusive: 73.1 µM [cytotoxic, single point]"
same,Potency,[7],inactive
C[C@@]12CCC[C@H]1[C@@H]1CC[C@H]3C[C@@H](O)CC[C@]3(C)[C@H]1CC2,Potency,[1],"inconclusive: 10.6 µM [rising, full curve, poor fit]"
same,Potency,[2],active: 26.6 µM
same,Potency,[7],"inconclusive: 29.8 µM [cytotoxic, single point]"
same,Potency,[6],"inconclusive: 33.5 µM [cytotoxic, single point]"
same,Potency,[10],"inconclusive: 33.5 µM [activator, partial curve, poor fit]"
same,Potency,[4],inactive
same,Potency,[5],"inconclusive: 13.8 µM [inhibitor, full curve]"
CCOC(=O)CC(O)(CC(=O)OCC)C(=O)OCC,"activity change, negative = inhibition",[1],inconclusive: -20%
same,Potency,[2],inactive
same,Potency,[9],active: 35.6 µM
Nc1nc2ccc(OC(F)(F)F)cc2s1,"activity change, negative = inhibition",[1],inconclusive: -60.9% [at 42.5 µM]
same,Potency,[2],inactive
same,Potency,[6],"inconclusive: 29.8 µM [cytotoxic, single point]"
Cc1cc(O)ccc1N,Potency,[1],"inconclusive: 6.14 µM [falling, full curve]"
same,Potency,[2],"inconclusive: 3.46 µM [rising, full curve, poor fit]"
same,Potency,[7],"inconclusive: 61.4 µM [cytotoxic, partial curve, poor fit]"
same,Potency,[6],active: 61.4 µM
same,Potency,[11],"inconclusive: 68.9 µM [activator, single point]"
same,Potency,[8],inconclusive: 61.4 µM [cytotoxic]
same,Potency,[4],active: 20.1 µM
same,Potency,[9],active: 17.9 µM

# Reference: PubChem BioAssay (Tox21)
